Measured values published in US8962844B2, “1,3,4-oxadiazole and 1,3,4-thiadiazole β-lactamase inhibitors” (priority 2012, dated 2015).
Structures can show the parent of a compound that is named as a salt. Some results were stated once for a whole list of compounds, not compound by compound. At least one compound was matched to its structure with a doubt left.

Biological target: KPC-2 (Klebsiella pneumoniae, UniProt Q9F663)
Type: biochemical, K. pneumoniae
Settings: KPC-2, 100 μM nitrocefin, 1×PBS pH 7.4, 25° C.

KPC-2, sequence (Q9F663 25-293 limits assumed): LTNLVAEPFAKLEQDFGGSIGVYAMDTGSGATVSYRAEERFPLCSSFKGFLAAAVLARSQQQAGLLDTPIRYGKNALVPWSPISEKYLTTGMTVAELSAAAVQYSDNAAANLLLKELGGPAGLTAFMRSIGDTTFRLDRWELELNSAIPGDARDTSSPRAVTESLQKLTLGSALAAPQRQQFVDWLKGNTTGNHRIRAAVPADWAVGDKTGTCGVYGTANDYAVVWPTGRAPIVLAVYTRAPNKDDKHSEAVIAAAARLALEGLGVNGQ

Row | Compound | binding affinity for the β-lactamase enzyme (kinact/K, Table IV) [M⁻¹ s⁻¹]
1 | NCCc1nnc([C@@H]2CC[C@@H]3CN2C(=O)N3OS(=O)(=O)O)o1 [Compound 703, (2S,5R)-2-(5-(2-aminoethyl)-1,3,4-oxadiazol-2-yl)-7-oxo-1,6-diazabicyclo[3.2.1]octan-6-yl hydrogen sulfate] | 100000 to 999000
2 | O=C1N2C[C@@H](CC[C@H]2c2nnc(N3CCNCC3)o2)N1OS(=O)(=O)O [Compound 713, (2S,5R)-7-oxo-2-(5-(piperazin-1-yl)-1,3,4-oxadiazol-2-yl)-1,6-diazabicyclo[3.2.1]octan-6-yl hydrogen sulfate] | 100000 to 999000
3 | NCC(O)c1nnc([C@@H]2CC[C@@H]3CN2C(=O)N3OS(=O)(=O)O)o1 (stereo partly drawn) [Compound 715, (2S,5R)-2-(5-(2-amino-1-hydroxyethyl)-1,3,4-oxadiazol-2-yl)-7-oxo-1,6-diazabicyclo[3.2.1]octan-6-yl hydrogen sulfate] | 1000 to 99000
4 | NCCNCCc1nnc([C@@H]2CC[C@@H]3CN2C(=O)N3OS(=O)(=O)O)o1 [Compound 716, (2S,5R)-2-(5-(2-((2-aminoethyl)amino)ethyl)-1,3,4-oxadiazol-2-yl)-7-oxo-1,6-diazabicyclo[3.2.1]octan-6-yl hydrogen sulfate] | 1000 to 99000
5 | NCC(N)c1nnc([C@@H]2CC[C@@H]3CN2C(=O)N3OS(=O)(=O)O)o1 (stereo partly drawn) [Compound 717, (2S,5R)-2-(5-(1,2-diaminoethyl)-1,3,4-oxadiazol-2-yl)-7-oxo-1,6-diazabicyclo[3.2.1]octan-6-yl hydrogen sulfate] | 1000 to 99000
6 | NCCc1nnc([C@@H]2CC[C@@H]3CN2C(=O)N3OS(=O)(=O)O)s1 [Compound 718, (2S,5R)-2-(5-(2-aminoethyl)-1,3,4-thiadiazol-2-yl)-7-oxo-1,6-diazabicyclo[3.2.1]octan-6-yl hydrogen sulfate] | 1000 to 99000
7 | O=C1N2C[C@@H](CC[C@H]2c2nnc(C3CCNCC3)s2)N1OS(=O)(=O)O [Compound 719, (2S,5R)-7-oxo-2-(5-(piperidin-4-yl)-1,3,4-thiadiazol-2-yl)-1,6-diazabicyclo[3.2.1]octan-6-yl hydrogen sulfate] | 1000 to 99000
8 | NCCCc1nnc([C@@H]2CC[C@@H]3CN2C(=O)N3OS(=O)(=O)O)o1 [Compound 720, (2S,5R)-2-(5-(3-aminopropyl)-1,3,4-oxadiazol-2-yl)-7-oxo-1,6-diazabicyclo[3.2.1]octan-6-yl hydrogen sulfate] | 100000 to 999000
9 | CNCCc1nnc([C@@H]2CC[C@@H]3CN2C(=O)N3OS(=O)(=O)O)o1 [Compound 722, (2S,5R)-2-(5-(2-(methylamino)ethyl)-1,3,4-oxadiazol-2-yl)-7-oxo-1,6-diazabicyclo[3.2.1]octan-6-yl hydrogen sulfate] | 1000 to 99000
10 | NC1(Cc2nnc([C@@H]3CC[C@@H]4CN3C(=O)N4OS(=O)(=O)O)o2)CC1 [Compound 724, (2S,5R)-2-(5-((1-aminocyclopropyl)methyl)-1,3,4-oxadiazol-2-yl)-7-oxo-1,6-diazabicyclo[3.2.1]octan-6-yl hydrogen sulfate] | 1000 to 99000
11 | O=C1N2C[C@@H](CC[C@H]2c2nnc(CC3CNC3)o2)N1OS(=O)(=O)O [Compound 725, (2S,5R)-2-(5-(azetidin-3-ylmethyl)-1,3,4-oxadiazol-2-yl)-7-oxo-1,6-diazabicyclo[3.2.1]octan-6-yl hydrogen sulfate] | 1000 to 99000
12 | O=C1N2C[C@@H](CC[C@H]2c2nnc(CNC3CNC3)o2)N1OS(=O)(=O)O [Compound 726, (2S,5R)-2-(5-((azetidin-3-ylamino)methyl)-1,3,4-oxadiazol-2-yl)-7-oxo-1,6-diazabicyclo[3.2.1]octan-6-yl hydrogen sulfate] | 1000 to 99000
13 | N[C@H]1C[C@@H](Cc2nnc([C@@H]3CC[C@@H]4CN3C(=O)N4OS(=O)(=O)O)o2)C1 [Compound 728, (2S,5R)-2-(5-(((1s,3R)-3-aminocyclobutyl)methyl)-1,3,4-oxadiazol-2-yl)-7-oxo-1,6-diazabicyclo[3.2.1]octan-6-yl hydrogen sulfate] | 1000 to 99000
14 | N[C@@H]1CC[C@H](c2nnc([C@@H]3CC[C@@H]4CN3C(=O)N4OS(=O)(=O)O)o2)C1 [Compound 729, (2S,5R)-2-(5-((1S,3R)-3-aminocyclopentyl)-1,3,4-oxadiazol-2-yl)-7-oxo-1,6-diazabicyclo[3.2.1]octan-6-yl hydrogen sulfate] | 1000 to 99000
15 | NCC(O)Cc1nnc([C@@H]2CC[C@@H]3CN2C(=O)N3OS(=O)(=O)O)o1 (stereo partly drawn) [Compound 733, (2S,5R)-2-(5-(3-amino-2-hydroxypropyl)-1,3,4-oxadiazol-2-yl)-7-oxo-1,6-diazabicyclo[3.2.1]octan-6-yl hydrogen sulfate] | 1000 to 99000
16 | CNCCCc1nnc([C@@H]2CC[C@@H]3CN2C(=O)N3OS(=O)(=O)O)o1 [Compound 734, (2S,5R)-2-(5-(3-(methylamino)propyl)-1,3,4-oxadiazol-2-yl)-7-oxo-1,6-diazabicyclo[3.2.1]octan-6-yl hydrogen sulfate] | 1000 to 99000
17 | NCCCCc1nnc([C@@H]2CC[C@@H]3CN2C(=O)N3OS(=O)(=O)O)o1 [Compound 735, (2S,5R)-2-(5-(4-aminobutyl)-1,3,4-oxadiazol-2-yl)-7-oxo-1,6-diazabicyclo[3.2.1]octan-6-yl hydrogen sulfate] | 1000 to 99000
18 | O=C1N2C[C@@H](CC[C@H]2c2nnc(CCNCCO)o2)N1OS(=O)(=O)O [Compound 736, (2S,5R)-2-(5-(2-((2-hydroxyethyl)amino)ethyl)-1,3,4-oxadiazol-2-yl)-7-oxo-1,6-diazabicyclo[3.2.1]octan-6-yl hydrogen sulfate] | 1000 to 99000
19 | CC(C)(N)Cc1nnc([C@@H]2CC[C@@H]3CN2C(=O)N3OS(=O)(=O)O)o1 [Compound 737, (2S,5R)-2-(5-(2-amino-2-methylpropyl)-1,3,4-oxadiazol-2-yl)-7-oxo-1,6-diazabicyclo[3.2.1]octan-6-yl hydrogen sulfate] | 1000 to 99000
20 | O=C1N2C[C@@H](CC[C@H]2c2nnc([C@H]3[C@@H]4CNC[C@@H]43)o2)N1OS(=O)(=O)O [Compound 740, (2S,5R)-2-(5-(3-azabicyclo[3.1.0]hexan-6-yl)-1,3,4-oxadiazol-2-yl)-7-oxo-1,6-diazabicyclo[3.2.1]octan-6-yl hydrogen sulfate] | 100000 to 999000
21 | O=C1N2C[C@@H](CC[C@H]2c2nnc(CCCC3CNC3)o2)N1OS(=O)(=O)O [Compound 743, (2S,5R)-2-(5-(3-(azetidin-3-yl)propyl)-1,3,4-oxadiazol-2-yl)-7-oxo-1,6-diazabicyclo[3.2.1]octan-6-yl hydrogen sulfate] | 100000 to 999000
22 | O=C1N2C[C@@H](CC[C@H]2c2nnc(COC3CNC3)o2)N1OS(=O)(=O)O [Compound 744, (2S,5R)-2-(5-((azetidin-3-yloxy)methyl)-1,3,4-oxadiazol-2-yl)-7-oxo-1,6-diazabicyclo[3.2.1]octan-6-yl hydrogen sulfate] | 1000 to 99000
23 | O=C1N2C[C@@H](CC[C@H]2c2nnc(CCNC3CNC3)o2)N1OS(=O)(=O)O [Compound 745, (2S,5R)-2-(5-(2-(azetidin-3-ylamino)ethyl)-1,3,4-oxadiazol-2-yl)-7-oxo-1,6-diazabicyclo[3.2.1]octan-6-yl hydrogen sulfate] | 100000 to 999000
24 | N=C(N)N1CC(NCc2nnc([C@@H]3CC[C@@H]4CN3C(=O)N4OS(=O)(=O)O)o2)C1 [Compound 746, (2S,5R)-2-(5-(((1-carbamimidoylazetidin-3-yl)amino)methyl)-1,3,4-oxadiazol-2-yl)-7-oxo-1,6-diazabicyclo[3.2.1]octan-6-yl hydrogen sulfate] | 100000 to 999000
25 | O=C1N2C[C@@H](CC[C@H]2c2nnc(C3CC4(CNC4)C3)o2)N1OS(=O)(=O)O [Compound 750, (2S,5R)-2-(5-(2-azaspiro[3,3]heptan-6-yl)-1,3,4-oxadiazol-2-yl)-7-oxo-1,6-diazabicyclo[3.2.1]octan-6-yl hydrogen sulfate] | 1000 to 99000
26 | N[C@H]1C[C@H](Cc2nnc([C@@H]3CC[C@@H]4CN3C(=O)N4OS(=O)(=O)O)o2)C1 [Compound 751, (2S,5R)-2-(5-(((1r,3S)-3-aminocyclobutyl)methyl)-1,3,4-oxadiazol-2-yl)-7-oxo-1,6-diazabicyclo[3.2.1]octan-6-yl hydrogen sulfate] | 1000 to 99000
27 | N[C@H]1C[C@@H](CCc2nnc([C@@H]3CC[C@@H]4CN3C(=O)N4OS(=O)(=O)O)o2)C1 [Compound 754, (2S,5R)-2-(5-(2-((1s,3S)-3-aminocyclobutyl)ethyl)-1,3,4-oxadiazol-2-yl)-7-oxo-1,6-diazabicyclo[3.2.1]octan-6-yl hydrogen sulfate] | 1000 to 99000
28 | N[C@H]1C[C@@H](NCc2nnc([C@@H]3CC[C@@H]4CN3C(=O)N4OS(=O)(=O)O)o2)C1 [Compound 756, (2S,5R)-2-(5-((((1s,3R)-3-aminocyclobutyl)amino)methyl)-1,3,4-oxadiazol-2-yl)-7-oxo-1,6-diazabicyclo[3.2.1]octan-6-yl hydrogen sulfate] | 1000 to 99000
29 | N[C@H]1C[C@H](NCc2nnc([C@@H]3CC[C@@H]4CN3C(=O)N4OS(=O)(=O)O)o2)C1 [Compound 757, (2S,5R)-2-(5-((((1r,3S)-3-aminocyclobutyl)amino)methyl)-1,3,4-oxadiazol-2-yl)-7-oxo-1,6-diazabicyclo[3.2.1]octan-6-yl hydrogen sulfate] | 1000 to 99000
